According to the supplement of paper PMC8728848:
This is one part of the list.

How the values were obtained:
Assay in all cases: glycan array binding signal (z-score within array); higher = stronger binding
Conditions in all cases: glycan notation: IUPAC condensed, linker removed
[1] = target: Fuc(a1-2)Gal(b1-4)GlcNAc(b1-3)Gal(b1-4)GlcNAc
Method in brief: (§1)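 The binding signal is a Z-score computed within each array and averaged over linkers. Arrays of the same protein sequence at different concentrations or buffers were also averaged together. Data originate from 3228 arrays in the Consortium for Functional Glycomics database, kept only where the protein sequence was available.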

[2] = target: Fuc(a1-2)Gal(b1-4)GlcNAc(b1-3)Gal(b1-4)GlcNAc(b1-2)Man(a1-3)[Fuc(a1-2)Gal(b1-4)GlcNAc(b1-3)Gal(b1-4)GlcNAc(b1-2)Man(a1-6)]Man(b1-4)GlcNAc(b1-4)GlcNAc
Method in brief: as §1

[3] = target: Fuc(a1-2)Gal(b1-4)GlcNAc(b1-3)Gal(b1-4)GlcNAc(b1-3)Gal(b1-4)GlcNAc
Method in brief: as §1

[4] = target: Fuc(a1-2)Gal(b1-4)GlcNAc(b1-3)GalNAc
Method in brief: as §1

[5] = target: Fuc(a1-2)Gal(b1-4)GlcNAc(b1-3)[Fuc(a1-2)Gal(b1-4)GlcNAc(b1-6)]GalNAc
Method in brief: as §1

[6] = target: Fuc(a1-2)Gal(b1-4)GlcNAc(b1-3)[Fuc(a1-3)[Gal(b1-4)]GlcNAc(b1-6)]Gal(b1-4)Glc
Method in brief: as §1

[7] = target: Fuc(a1-2)Gal(b1-4)GlcNAc(b1-6)GalNAc
Method in brief: as §1

[8] = target: Fuc(a1-2)Gal(b1-4)GlcNAc6S
Method in brief: as §1

[9] = target: Fuc(a1-2)Gal(b1-4)[Fuc(a1-3)]GalNAc(b1-3)Gal(b1-4)[Fuc(a1-3)]GlcNAc
Method in brief: as §1

[10] = target: Fuc(a1-2)Gal(b1-4)[Fuc(a1-3)]GalNAc(b1-3)Gal(b1-4)[Fuc(a1-3)]GlcNAc(b1-3)Gal(b1-4)[Fuc(a1-3)]GalNAc
Method in brief: as §1

[11] = target: Fuc(a1-2)Gal(b1-4)[Fuc(a1-3)]GlcNAc
Method in brief: as §1

[12] = target: Fuc(a1-2)Gal(b1-4)[Fuc(a1-3)]GlcNAc(b1-2)Man(a1-3)[Fuc(a1-2)Gal(b1-4)[Fuc(a1-3)]GlcNAc(b1-2)Man(a1-6)]Man(b1-4)GlcNAc(b1-4)[Fuc(a1-6)]GlcNAc
Method in brief: as §1

[13] = target: Fuc(a1-2)Gal(b1-4)[Fuc(a1-3)]GlcNAc(b1-2)[Fuc(a1-2)Gal(b1-4)[Fuc(a1-3)]GlcNAc(b1-4)]Man(a1-3)[Fuc(a1-2)Gal(b1-4)[Fuc(a1-3)]GlcNAc(b1-2)Man(a1-6)]Man(b1-4)GlcNAc(b1-4)GlcNAc
Method in brief: as §1

[14] = target: Fuc(a1-2)Gal(b1-4)[Fuc(a1-3)]GlcNAc(b1-3)Gal(b1-4)[Fuc(a1-3)]GlcNAc
Method in brief: as §1

[15] = target: Fuc(a1-2)Gal(b1-4)[Fuc(a1-3)]GlcNAc(b1-3)Gal(b1-4)[Fuc(a1-3)]GlcNAc(b1-3)Gal(b1-4)[Fuc(a1-3)]GlcNAc
Method in brief: as §1

[16] = target: Fuc(a1-2)Gal(b1-4)[Fuc(a1-3)]GlcNAc(b1-3)GalNAc
Method in brief: as §1

[17] = target: Fuc(a1-2)Gal(b1-4)[Fuc(a1-3)]GlcNAc(b1-3)[Neu5Ac(a2-6)Gal(b1-4)GlcNAc(b1-6)]Gal(b1-4)Glc
Method in brief: as §1

[18] = target: Fuc(a1-2)Gal3S(b1-4)GlcNAc
Method in brief: as §1

[19] = target: Fuc(a1-2)Gal6S(b1-3)GlcNAc
Method in brief: as §1

[20] = target: Fuc(a1-2)Gal6S(b1-3)GlcNAc6S
Method in brief: as §1

Fuc(a1-2)Gal6S(b1-4)Glc = target: Fuc(a1-2)Gal6S(b1-4)Glc
Method in brief: as §1

[21] = target: Fuc(a1-2)Gal6S(b1-4)Glc6S
Method in brief: as §1

[22] = target: Fuc(a1-2)Gal6S(b1-4)GlcNAc
Method in brief: as §1

Fuc(a1-2)GlcNAc = target: Fuc(a1-2)GlcNAc
Method in brief: as §1

Fuc(a1-2)[Gal(a1-3)]Gal = target: Fuc(a1-2)[Gal(a1-3)]Gal
Method in brief: as §1

[23] = target: Fuc(a1-2)[Gal(a1-3)]Gal(b1-3)GalNAc
Method in brief: as §1

[24] = target: Fuc(a1-2)[Gal(a1-3)]Gal(b1-3)GalNAc(b1-3)Gal(a1-4)Gal(b1-4)Glc
Method in brief: as §1

[25] = target: Fuc(a1-2)[Gal(a1-3)]Gal(b1-3)GlcNAc
Method in brief: as §1

[26] = target: Fuc(a1-2)[Gal(a1-3)]Gal(b1-3)GlcNAc(b1-2)Man(a1-3)[Fuc(a1-2)[Gal(a1-3)]Gal(b1-3)GlcNAc(b1-2)Man(a1-6)]Man(b1-4)GlcNAc(b1-4)GlcNAc
Method in brief: as §1

[27] = target: Fuc(a1-2)[Gal(a1-3)]Gal(b1-3)GlcNAc(b1-2)Man(a1-3)[Fuc(a1-2)[Gal(a1-3)]Gal(b1-3)GlcNAc(b1-2)Man(a1-6)]Man(b1-4)GlcNAc(b1-4)[Fuc(a1-6)]GlcNAc
Method in brief: as §1

B1: Epa7 (Candida glabrata), Q6DTM6_CANGB (protein)
chain: MGSSHHHHHHSSGLVPRGSHMKDDYSSFLSNNNLGWTDPTEFPLGCSPNVTTPKNGLSMELYSYDLRKNGSYPCWDAAYLDPNYPRTGYKSHRLLAKVDGVTGNINFYYHATKGCTPEIDHLPASYNYPKPLTMTNFTMLLYGYFKPKVTGYHTFTISADDLLFVNFGAGNAFDCCKRESSADDFGNYQAYAVWGSQTAKDDLTVHLDAGLYYPIRIFFNNREYDAELSLTLKTESDSNPVIDFSDYFYSFDDTKDGCPGLVSYDTS
glycan array binding signal (z-score) [1]: -0.258
glycan array binding signal (z-score) [2]: -0.201
glycan array binding signal (z-score) [3]: -0.253
glycan array binding signal (z-score) [4]: -0.166
glycan array binding signal (z-score) [5]: -0.209
glycan array binding signal (z-score) [6]: -0.221
glycan array binding signal (z-score) [7]: -0.188
glycan array binding signal (z-score) [8]: -0.254
glycan array binding signal (z-score) [9]: -0.284
glycan array binding signal (z-score) [10]: -0.281
glycan array binding signal (z-score) [11]: -0.255
glycan array binding signal (z-score) [12]: -0.197
glycan array binding signal (z-score) [13]: -0.125
glycan array binding signal (z-score) [14]: -0.236
glycan array binding signal (z-score) [15]: -0.231
glycan array binding signal (z-score) [16]: -0.027
glycan array binding signal (z-score) [17]: -0.135
glycan array binding signal (z-score) [18]: -0.217
glycan array binding signal (z-score) [19]: -0.219
glycan array binding signal (z-score) [20]: -0.195
glycan array binding signal (z-score) (Fuc(a1-2)Gal6S(b1-4)Glc): -0.259
glycan array binding signal (z-score) [21]: -0.247
glycan array binding signal (z-score) [22]: -0.285
glycan array binding signal (z-score) (Fuc(a1-2)GlcNAc): -0.263
glycan array binding signal (z-score) (Fuc(a1-2)[Gal(a1-3)]Gal): -0.213
glycan array binding signal (z-score) [23]: -0.226
glycan array binding signal (z-score) [24]: -0.218
glycan array binding signal (z-score) [25]: -0.244
glycan array binding signal (z-score) [26]: -0.23
glycan array binding signal (z-score) [27]: -0.228
